We go through 39 compounds from the supplement of paper PMC4604168 (melanoma cell lines).

The list shows a part of the results. Single values are uncertain, as repeats are few or missing.
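Also: cells treated in 1,536-well plates, then fixed and DAPI-stained, with nuclei counted from automated high-throughput microscope images.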

The subject of one experiment is A375. Briefly: cell count relative to DMSO control; melanoma cells; higher = more viable cells. The note with it: library dose: standard library concentration; 72 h; first compound 2 µM.
`CCCCCCCCCCCCCCCCCCOP(=O)([O-])OC1CC[N+](C)(C)CC1` [Perifosine] + O=C(O)C(=O)Nc1sc2c(c1C(=O)O)CCNC2 [TCS401] (partner dose 8.33333 µM): the cell count came to 138%.

Compound `CCCCCCCCCCCCCCCCCCOP(=O)([O-])OC1CC[N+](C)(C)CC1` [Perifosine] + NCC(=O)Nc1ccc(-n2nc(C(F)(F)F)cc2-c2ccc3c(ccc4ccccc43)c2)cc1 [OSU03012] (partner dose 5 µM) registered a cell count of 50.6%.

As for `Cn1sc(=O)n(Cc2ccccc2)c1=O` + CN1CCN(c2ccc3nc(-c4c(N)c5c(F)cccc5[nH]c4=O)[nH]c3c2)CC1 [Dovitinib] (partner dose 0.5 µM), the cell count was determined as 71.9%.

Compound `Cn1sc(=O)n(Cc2ccccc2)c1=O` + COC(=O)c1sccc1S(=O)(=O)Nc1ccc(Nc2ccccc2)cc1OC [GSK0660] (partner dose 5 µM) gave a cell count of 82%.

On to `Cn1sc(=O)n(Cc2ccccc2)c1=O` + N#Cc1c(O)c2c(-c3ccc(-c4ccccc4O)cc3)csc2[nH]c1=O [A769662] (partner dose 10 µM), for which the cell count came out at 94.8%.

Turning to `C[C@@H](N)c1ccc(C(=O)Nc2ccnc3[nH]ccc23)cc1` + Cc1cc(Nc2cc(N3CCN(C)CC3)nc(/C=C/c3ccccc3)n2)n[nH]1 [ENMD2076] (partner dose 0.2 µM), the cell count stood at 99.1%.

Another experiment relates to C32. The description is as above. The note with it: library dose: standard library concentration; 72 h; first compound 2 µM.
`Cn1sc(=O)n(Cc2ccccc2)c1=O` + C=CCn1c(=O)c2cnc(Nc3ccc(N4CCN(C)CC4)cc3)nc2n1-c1cccc(C(C)(C)O)n1 [MK1775] (partner dose 0.1 µM) came in with a cell count of 115%.

Turning to `C[C@@H](N)c1ccc(C(=O)Nc2ccnc3[nH]ccc23)cc1` + CCN(CC)CCNC(=O)c1c(C)[nH]c(/C=C2\C(=O)Nc3ccc(F)cc32)c1C [sunitinib] (partner dose 2 µM), the cell count was determined as 65.6%.

Compound `CCCCCCCCCCCCCCCCCCOP(=O)([O-])OC1CC[N+](C)(C)CC1` [Perifosine] + Cn1cc(/C=C2\C(=O)Nc3cccnc32)c2ccccc21 [GW441756] (partner dose 2 µM) yielded a cell count of 89.4%.

As to `Cn1sc(=O)n(Cc2ccccc2)c1=O` + COc1cc2ncnc(Nc3ccc(Oc4ccccc4)cc3)c2cc1OC [SrcI1] (partner dose 10 µM), the cell count worked out at 121%.

On to `Cn1sc(=O)n(Cc2ccccc2)c1=O` + O=C(O)[C@@H]1[O][Sb](=[O])([O][Sb]2(=[O])[O][C@H]([C@H](O)CO)[C@H](O)[C@H](C(=O)O)[O]2)[O][C@H]([C@H](O)CO)[C@@H]1O [stibogluconate] (partner dose 10 µM), for which the cell count stood at 95.6%.

Take `C[C@@H](N)c1ccc(C(=O)Nc2ccnc3[nH]ccc23)cc1` + O=C(O)[C@@H]1[O][Sb](=[O])([O][Sb]2(=[O])[O][C@H]([C@H](O)CO)[C@H](O)[C@H](C(=O)O)[O]2)[O][C@H]([C@H](O)CO)[C@@H]1O [stibogluconate] (partner dose 10 µM): the cell count came to 72.3%.

`CCCCCCCCCCCCCCCCCCOP(=O)([O-])OC1CC[N+](C)(C)CC1` [Perifosine] + Cc1cc([N+](=O)[O-])ccc1NS(=O)(=O)c1cc(Cl)ccc1Cl [FH535] (partner dose 5 µM): the cell count came to 95.6%.

In the case of `Cn1sc(=O)n(Cc2ccccc2)c1=O` + CCc1ccc(CCOc2ccc(CC3SC(=O)NC3=O)cc2)nc1 [pioglitazone] (partner dose 10 µM), the cell count was found to be 77.6%.

As to `CCCCCCCCCCCCCCCCCCOP(=O)([O-])OC1CC[N+](C)(C)CC1` [Perifosine] + Oc1nc(-c2ccc(C(F)(F)F)cc2)nc2c1CSCC2 [XAV939] (partner dose 10 µM), the cell count turned out to be 88%.

`CCCCCCCCCCCCCCCCCCOP(=O)([O-])OC1CC[N+](C)(C)CC1` [Perifosine] + Cc1ccc(Nc2nccc(N(C)c3ccc4c(C)n(C)nc4c3)n2)cc1S(N)(=O)=O [Pazopanib] (partner dose 2 µM) registered a cell count of 107%.

As to `CCCCCCCCCCCCCCCCCCOP(=O)([O-])OC1CC[N+](C)(C)CC1` [Perifosine] + c1cc(-c2cnn3cc(-c4ccc(OCCN5CCCCC5)cc4)cnc23)ccn1 [Dorsomorphin] (partner dose 2 µM), the cell count came out at 72.2%.

`C[C@@H](N)c1ccc(C(=O)Nc2ccnc3[nH]ccc23)cc1` + COc1cc2ncnc(Nc3ccc(Oc4ccccc4)cc3)c2cc1OC [SrcI1] (partner dose 10 µM) came in with a cell count of 68%.

Compound `C[C@@H](N)c1ccc(C(=O)Nc2ccnc3[nH]ccc23)cc1` + COCC[n+]1c2c(n(Cc3cnccn3)c1C)C(=O)c1ccccc1C2=O [YM155] (partner dose 0.002 µM) returned a cell count of 87.5%.

Regarding `CCCCCCCCCCCCCCCCCCOP(=O)([O-])OC1CC[N+](C)(C)CC1` [Perifosine] + O=c1cc(-c2cccc3c2Sc2ccccc2S3)oc(N2CCOCC2)c1 [KU55933] (partner dose 5 µM), the cell count was 114%.

`C[C@@H](N)c1ccc(C(=O)Nc2ccnc3[nH]ccc23)cc1` + Cc1cc([N+](=O)[O-])ccc1NS(=O)(=O)c1cc(Cl)ccc1Cl [FH535] (partner dose 5 µM) displayed a cell count of 78.5%.

On to `CCCCCCCCCCCCCCCCCCOP(=O)([O-])OC1CC[N+](C)(C)CC1` [Perifosine] + CCN(CC)CCCCNc1ncc2cc(-c3cc(OC)cc(OC)c3)c(NC(=O)NC(C)(C)C)nc2n1 [PD173074] (partner dose 0.5 µM), for which the cell count amounted to 111%.

For the compound `C[C@@H](N)c1ccc(C(=O)Nc2ccnc3[nH]ccc23)cc1` + c1cc(-c2cnn3cc(-c4ccc(OCCN5CCCCC5)cc4)cnc23)ccn1 [Dorsomorphin] (partner dose 2 µM), the cell count is 44.6%.

As for `C[C@@H](N)c1ccc(C(=O)Nc2ccnc3[nH]ccc23)cc1` + Nc1nc(F)nc2c1ncn2[C@@H]1O[C@H](CO)[C@@H](O)[C@@H]1O [fludarabine] (partner dose 1 µM), the cell count was 79.8%.

In the case of `C[C@@H](N)c1ccc(C(=O)Nc2ccnc3[nH]ccc23)cc1` + CN(NC(=O)CC(=O)NN(C)C(=S)c1ccccc1)C(=S)c1ccccc1 [STA4783] (partner dose 0.03 µM), the cell count was 19.2%.

In the case of `CCCCCCCCCCCCCCCCCCOP(=O)([O-])OC1CC[N+](C)(C)CC1` [Perifosine] + COc1cc2ncnc(Nc3ccc(Oc4ccccc4)cc3)c2cc1OC [SrcI1] (partner dose 10 µM), the cell count worked out at 86%.

Compound `CCCCCCCCCCCCCCCCCCOP(=O)([O-])OC1CC[N+](C)(C)CC1` [Perifosine] + Cc1cc(Nc2cc(N3CCN(C)CC3)nc(/C=C/c3ccccc3)n2)n[nH]1 [ENMD2076] (partner dose 0.2 µM) yielded a cell count of 101%.

Consider `C[C@@H](N)c1ccc(C(=O)Nc2ccnc3[nH]ccc23)cc1` + O=c1cc(-c2cccc3c2Sc2ccccc2S3)oc(N2CCOCC2)c1 [KU55933] (partner dose 5 µM), for which the cell count stood at 83.9%.

With `Cn1sc(=O)n(Cc2ccccc2)c1=O` + O=c1cc(-c2cccc3c2Sc2ccccc2S3)oc(N2CCOCC2)c1 [KU55933] (partner dose 5 µM), the cell count came to 103%.

With `CCCCCCCCCCCCCCCCCCOP(=O)([O-])OC1CC[N+](C)(C)CC1` [Perifosine] + O=C1NC(=O)/C(=C/c2ccc(-c3ccc(F)cc3O)o2)S1 [AS252424] (partner dose 5 µM), the cell count worked out at 87.3%.

Turning to `Cn1sc(=O)n(Cc2ccccc2)c1=O` + Oc1cc(-c2nc(-c3ccccc3)[nH]c2-c2ccncc2)ccc1Cl [L779450] (partner dose 1 µM), the cell count worked out at 69.6%.

`Cn1sc(=O)n(Cc2ccccc2)c1=O` + Oc1nc(-c2ccc(C(F)(F)F)cc2)nc2c1CSCC2 [XAV939] (partner dose 10 µM) yielded a cell count of 118%.

`Cn1sc(=O)n(Cc2ccccc2)c1=O` + COc1ccc(C2=N[C@@H](c3ccc(Cl)cc3)[C@@H](c3ccc(Cl)cc3)N2C(=O)N2CCNC(=O)C2)c(OC(C)C)c1 [Nutlin-3] (partner dose 0.5 µM) yielded a cell count of 85.3%.

Turning to `Cn1sc(=O)n(Cc2ccccc2)c1=O` + CCN(CC)CCCCNc1ncc2cc(-c3cc(OC)cc(OC)c3)c(NC(=O)NC(C)(C)C)nc2n1 [PD173074] (partner dose 0.5 µM), the cell count is 101%.

The compound `C[C@@H](N)c1ccc(C(=O)Nc2ccnc3[nH]ccc23)cc1` + NC(=O)c1ccc(N(C(N)=O)c2c(F)cccc2F)nc1-c1ccc(F)cc1F [VX702] (partner dose 2 µM) gave a cell count of 86.5%.

On to `CCCCCCCCCCCCCCCCCCOP(=O)([O-])OC1CC[N+](C)(C)CC1` [Perifosine] + Oc1cc(-c2nc(-c3ccccc3)[nH]c2-c2ccncc2)ccc1Cl [L779450] (partner dose 1 µM), for which the cell count came to 83.3%.

`Cn1sc(=O)n(Cc2ccccc2)c1=O` + COc1ccc2c(c1)CCC1C2CCC2(C)C(NCCCCCCN3C(=O)C=CC3=O)CCC12 [U73122] (partner dose 2 µM) gave a cell count of 68.3%.

In turn, `CCCCCCCCCCCCCCCCCCOP(=O)([O-])OC1CC[N+](C)(C)CC1` [Perifosine] + C[C@]1(O)C[C@@H](c2nc(-c3ccc4ccc(-c5ccccc5)nc4c3)c3c(N)nccn32)C1 [OSI906] (partner dose 2 µM) returned a cell count of 84.1%.

Consider `Cn1sc(=O)n(Cc2ccccc2)c1=O` + Cn1cc(/C=C2\C(=O)Nc3cccnc32)c2ccccc21 [GW441756] (partner dose 2 µM), for which the cell count worked out at 87.4%.

`CCCCCCCCCCCCCCCCCCOP(=O)([O-])OC1CC[N+](C)(C)CC1` [Perifosine] + O=C(O)C(=O)Nc1sc2c(c1C(=O)O)CCNC2 [TCS401] (partner dose 8.33333 µM): the cell count is 97.8%.

As for `CCCCCCCCCCCCCCCCCCOP(=O)([O-])OC1CC[N+](C)(C)CC1` [Perifosine] + NCC(=O)Nc1ccc(-n2nc(C(F)(F)F)cc2-c2ccc3c(ccc4ccccc43)c2)cc1 [OSU03012] (partner dose 5 µM), the cell count amounted to 77.4%.
